According to PubChem BioAssay AID1768 (National Center for Advancing Translational Sciences (NCATS), 2009):
About 620 (0.23%) of roughly 270,000 compounds were called active. The shares of active, inactive and inconclusive entries below differ from those in the screen. Calls follow the shape of the dose curve; as a rule, active = well fitted inhibition curve with a large enough effect in the polarisation, with a control signal flat (not every such curve was filed as active); inconclusive = small, poorly fitted or top-dose-only effect, or effect the other way, or a change in a side signal; inactive = no such curve, though single readings can be large or run the other way; the % refers to the polarisation. Potencies beside an inconclusive call are fits to weak or partial responses and may not hold up. “Side channel” marks fits to a control or component signal instead of the main read-out.

target: Menin (Homo sapiens) (UniProt O00255); assay: qHTS Assay for Inhibitors Targeting the Menin-MLL Interaction in MLL Related Leukemias: Competition With Texas Red Labeled MLL-derived Mutant Peptide; conditions: fluorescence polarization; FP activity change, negative = inhibition: at 61.6 µM (top of the series); as to FP activity change, negative = inhibition: % of control where 0% means no effect
Potency is read from the fitted curve at half-maximal effect; tags tell the direction and shape of the fitted curve or compound fluorescence and quenching.

UniProt O00255, sequence (O00255 whole entry, looked up): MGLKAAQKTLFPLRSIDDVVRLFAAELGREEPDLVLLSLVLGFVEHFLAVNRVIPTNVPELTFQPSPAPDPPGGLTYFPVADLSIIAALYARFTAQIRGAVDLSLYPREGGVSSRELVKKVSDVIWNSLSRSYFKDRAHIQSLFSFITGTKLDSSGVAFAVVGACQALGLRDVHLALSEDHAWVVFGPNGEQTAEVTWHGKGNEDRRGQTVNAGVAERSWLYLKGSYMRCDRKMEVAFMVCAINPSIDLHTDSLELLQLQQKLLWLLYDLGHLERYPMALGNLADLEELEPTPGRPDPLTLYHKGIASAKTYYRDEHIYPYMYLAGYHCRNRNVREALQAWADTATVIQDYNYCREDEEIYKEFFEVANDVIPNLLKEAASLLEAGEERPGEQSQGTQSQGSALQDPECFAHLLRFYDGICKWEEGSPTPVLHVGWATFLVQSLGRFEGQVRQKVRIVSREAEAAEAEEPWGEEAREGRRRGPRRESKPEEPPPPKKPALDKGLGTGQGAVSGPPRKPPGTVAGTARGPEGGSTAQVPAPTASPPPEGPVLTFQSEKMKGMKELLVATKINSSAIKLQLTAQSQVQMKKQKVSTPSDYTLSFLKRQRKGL

| Structure (SMILES) | Potency | FP activity change, negative = inhibition |
| --- | --- | --- |
| COc1ccc(/C=N/NC(=O)c2ccc(NC(C)=O)cc2)cc1COc1ccc(F)cc1F | inconclusive: 5.01 µM [fluorescent, side channel, single point] | – |
| O=S(=O)(Nc1ccc(O)c(Sc2nc3ccccc3s2)c1)c1ccc(F)cc1 | inconclusive: 39.8 µM [quencher, side channel, single point] | – |
| COc1ccc(-c2cn3cc([N+](=O)[O-])ccc3n2)cc1OC | inconclusive: 25.1 µM [quencher, side channel, partial curve] | – |
| c1ccc(CCc2nn3c(Cn4cnc5ccccc54)nnc3s2)cc1 | – | inactive: -10.3% |
| CCCSc1nnc(N2C(=O)C(O)=C(C(=O)c3ccco3)C2c2ccccc2F)s1 (stereo not given) | inconclusive: 22.4 µM [quencher, side channel, partial curve] | – |
| Cc1ccccc1-c1nc(CN(Cc2c(C)nn(C)c2C)C2CC2)c(C)o1 | inconclusive: 1.26 µM [fluorescent, side channel, full curve] | – |
| COc1ccccc1NC(=O)c1ccc2c(c1)N(CC#N)C(=O)C(C)(C)O2 | inconclusive: 31.6 µM [inhibitor, partial curve] | – |
| COc1ccc(S(=O)(=O)Nc2ccccc2C(=O)NCc2ccco2)cc1Br | inconclusive: 25.1 µM [quencher, side channel, single point] | – |
| COc1ccc(-c2nc(CS(=O)(=O)CC(=O)NCc3cccc(F)c3)c(C)o2)cc1 | inconclusive: 28.2 µM [fluorescent, side channel, single point] | – |
| O=C(CSc1nnc(-c2ccc(Br)o2)n1Cc1ccccc1)c1ccccc1F | inconclusive: 35.5 µM [inhibitor, single point] | – |
| CCCc1cc(C(=O)N2CCCC(C(=O)c3cccc4ccccc34)C2)n(C)n1 (stereo not given) | inconclusive: 4.47 µM [inhibitor, partial curve] | – |
| Oc1oc(-c2ccc(Br)cc2)nc1C=Nc1ccc(Br)cn1 | inconclusive: 14.1 µM [inhibitor, partial curve] | – |
| COc1cc(C(C)=O)ccc1OCCCOc1cccc2cccnc12 | inconclusive: 31.6 µM [fluorescent, side channel, single point] | – |
| COc1ccc(NS(=O)(=O)c2cccc(NC(=O)c3ccc(Cl)nc3)c2)cc1 | inconclusive: 20 µM [quencher, side channel, partial curve] | – |
| CSc1ccc(-c2sc(Nc3cccc4ccccc34)n[n+]2-c2ccccc2)cc1 | inconclusive: 39.8 µM [quencher, side channel, single point] | – |
| CCOc1ccc(S(=O)(=O)N2CCCC(C(=O)NCc3ccccc3)C2)cc1 (stereo not given) | inconclusive: 28.2 µM [fluorescent, side channel, single point] | – |
| CCn1cc(CNCc2cn[nH]c2-c2cc3ccccc3o2)cn1 | inconclusive: 39.8 µM [inhibitor, single point] | – |
| BrC(=C\c1ccccc1)/C=N/Nc1nc2ccccc2[nH]1 | inconclusive: 39.8 µM [quencher, side channel, single point] | – |
| CCN(CC)C(=O)/C(=C\c1ccc(Br)cc1)NC(=O)c1ccccc1OC | inconclusive: 22.4 µM [fluorescent, side channel, partial curve] | – |
| COc1cc(/C=C(/C#N)c2ccc(F)cc2)ccc1OCc1ccc(C(=O)O)o1 | inconclusive: 31.6 µM [quencher, side channel, single point] | – |
| CN(Cc1ccc(C#CCCO)cc1)CC1CCCN(CCc2ccc(Cl)cc2)C1 (stereo not given) | inconclusive: 8.91 µM [inhibitor, partial curve] | – |
| Cc1cccc(S(=O)(=O)N2CN(Cc3ccco3)c3nc4ccccc4nc32)c1 | inconclusive: 11.2 µM [quencher, side channel, partial curve] | – |
| O=C(CCCCCCC(=O)NCc1ccccc1)NCc1ccccc1 | inconclusive: 28.2 µM [fluorescent, side channel, single point] | – |
| Cc1cccc(-c2cc3nc(-c4ccccc4)cc(=O)n3[nH]2)c1 | inconclusive: 28.2 µM [quencher, side channel, single point] | – |
| O=C(Nc1ccccc1)Nc1cccc(Cl)c1Cl | inconclusive: 22.4 µM [quencher, side channel, partial curve] | – |
| Cc1cc(N2CCC(C(=O)Nc3ccc(F)cc3)CC2)nc(-c2ccccc2)n1 | inconclusive: 12.6 µM [quencher, side channel, partial curve] | – |
| O=C(O)c1cccc(Nc2nc(-c3cc4ccccc4oc3=O)cs2)c1 | inconclusive: 28.2 µM [quencher, side channel, partial curve] | – |
| N#C/C(=C\c1ccc(-c2cccc(Cl)c2)o1)C(=O)Nc1cccc2cccnc12 | inconclusive: 15.8 µM [quencher, side channel, partial curve] | – |

| Structure (SMILES) | Potency | FP activity change, negative = inhibition |
| --- | --- | --- |
| CCOC(=O)C1(CC2CC2)CCN(S(=O)(=O)C[C@]23CC[C@H](CC2=O)C3(C)C)CC1 | inconclusive: 10 µM [fluorescent, side channel, partial curve] | – |
| COCCNc1oc(/C=C/c2ccccc2OC)nc1S(=O)(=O)c1ccccc1 | inconclusive: 22.4 µM [quencher, side channel, single point] | – |
| COc1ccccc1C1CCN(Cc2ccc(Cl)c(Cl)c2)CC1 | inconclusive: 22.4 µM [fluorescent, side channel, single point] | – |
| N/C(=N\OC(=O)c1cccc2ccccc12)c1ccc(Br)cc1 | inconclusive: 8.91 µM [quencher, side channel, full curve, poor fit] | – |
| O=C(Nc1cccc(S(=O)(=O)N2CCCCC2)c1)c1ccccc1NS(=O)(=O)c1ccc(F)cc1 | – | inactive: 26.2% |
| O=C(N/N=C/c1ccco1)c1cccc(N2Cc3ccccc3C2)c1 | inconclusive: 28.2 µM [quencher, side channel, single point] | – |
| COc1ccc(C(=O)Nc2ccc(C(=O)OCC(=O)c3ccccc3)cc2)cc1 | inconclusive: 31.6 µM [fluorescent, side channel, single point] | – |
| COc1ccc(-c2csc(NC(=O)c3cccc(N4C(=O)CCC4=O)c3)n2)cc1C | inconclusive: 39.8 µM [inhibitor, single point] | – |
| OC(CN1CCOCC1)C12CC3CC(CC(C3)C1)C2 (stereo not given) | inconclusive: 39.8 µM [inhibitor, single point] | – |
| Nc1nc(-c2ccccc2)[nH]c(=O)c1N=O | inconclusive: 31.6 µM [quencher, side channel, single point] | – |
| Cc1ccc(S(=O)(=O)ON=C2CCN(S(=O)(=O)c3ccccc3)CC2)cc1 | inconclusive: 3.16 µM [inhibitor, partial curve] | – |
| O=C1NN(c2ccc(Cl)cc2)C(=O)/C1=C\c1ccc(-c2cccc(C(=O)O)c2)o1 | inconclusive: 28.2 µM [quencher, side channel, partial curve] | – |
| O=C(COc1ccccc1)N1CCN(c2nnc(-c3ccccc3)c3ccccc23)CC1 | inconclusive: 15.8 µM [fluorescent, side channel, partial curve] | – |
| COc1ccc(C2Nc3ccccc3C(=O)N2Cc2ccccc2)cc1Cn1nnc2ccccc21 (stereo not given) | inconclusive: 28.2 µM [fluorescent, side channel, single point] | – |
| O=c1cc(-c2ccc(Cl)c(Cl)c2)[nH][nH]1 | inconclusive: 20 µM [quencher, side channel, partial curve] | – |
| Fc1ccccc1Cn1cnc(NC(=S)NCCc2ccccc2)n1 | inconclusive: 3.16 µM [fluorescent, side channel, partial curve] | – |
| CC(Oc1ccc2c3c(c(=O)oc2c1)CCC3)C(=O)NCC1CCC(C(=O)O)CC1 (stereo not given) | inconclusive: 35.5 µM [inhibitor, single point] | – |
| O=C(Nc1ccc(Cl)c(Cl)c1)C1CC(=O)N(c2ccc(Br)cc2)C1 (stereo not given) | inconclusive: 4.47 µM [quencher, side channel, full curve] | – |
| O=C(c1ccco1)N1CCN(C(c2ccccc2Cl)c2nnnn2Cc2ccco2)CC1 (stereo not given) | inconclusive: 25.1 µM [fluorescent, side channel, single point] | – |
| CC1=NN(C(N)=S)C(=O)C1N=Nc1ccc(Cl)cc1 (stereo not given) | inconclusive: 15.8 µM [quencher, side channel, partial curve] | – |
| CCCCC(=O)Nc1nc(C)c(-c2csc(Nc3ccc(Cl)cc3)n2)s1 | inconclusive: 39.8 µM [inhibitor, single point] | – |
| C=CCn1c(O)c(N=NC(=S)Nc2cccc(OC)c2)c2ccccc21 | inconclusive: 14.1 µM [quencher, side channel, partial curve] | – |
| CC(C)(c1ccccc1)c1ccc(OCCCNCCO)cc1 | inconclusive: 22.4 µM [fluorescent, side channel, single point] | – |
| CC(C)CC(CSc1ccc(Br)cc1)N1CCN(CCc2ccccc2)CCC1=O (stereo not given) | – | inactive: -14% |
| COc1cc(C2Nc3cccc4cccc(c34)N2)ccc1OC(C)=O | inconclusive: 6.31 µM [quencher, side channel, partial curve] | – |
| CCOC(=O)c1c(-c2ccc(C)cc2)csc1NC(=O)c1cc2ccccc2oc1=O | inconclusive: 28.2 µM [quencher, side channel, single point] | – |
| O=C(O)CCCCCNc1ccc2nsnc2c1[N+](=O)[O-] | – | inactive: 2.96% |
